B1: CPEB3 Ribozyme (parent)
chain: UAACAGGGGGCCACAGCAGAAGCGUUCACGUCGCAGCCCCUGUCAGAUUCUGGUGAAUCUGCGAAUUCUGCUGUAUAUCUC

Read counts are not given, so values of variants with three or more changes are uncertain.

In the data set the parent is B1. The data set can be described thus: self-cleavage, relative activity (ratio to wild type); higher = more cleavage; in vitro, sequencing. The gist of the method:
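After error-prone PCR and barcoding, CPEB3 ribozyme mutant libraries were transcribed with T7 RNA polymerase at 37°C for 5 hours, then given 15 min with DNase I before an EDTA stop, and they cleaved during both steps. Reverse transcription with template switching preceded Illumina sequencing. Relative activity divides a variant's cleaved/total read fraction by the unmutated ribozyme's. At least 5 reads were required per variant, and three batches were averaged.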
As for UAACAGGGGGCCACAGCAGAAGCGUUCACGUCGCAGCCCCCGUCAGAUUCUGGUGAAUCGGCGAAUUCAGCUGUAUAUCUC, the self-cleavage came out at 0.27.
Regarding UAACAGGGGGCCACAGCAGAAGCGUUCACGUCGCAGCCCCGGUCAUAUUCUGGUGAAUCUGCGAAUUCUGCAGUAUACCUC, the self-cleavage is 0.07.
As to UAACAGGGGGCCACAGCAGAAGCGUUCACGUCGCAGCCCCCGUAAGAUUCCGGUGAAUCUGCGAAUUCUGCUGUAUAUUUC, the self-cleavage is 0.23.
To UAACAGGGGGCCACAGCAGAAGCGUUCACGUCGCAGCCCCGGUCAGAUUCUGGUGAACCUGCGGAUUCUGCUGUAUAUCUC belongs 0.14.
On to UAACAGGGGGCCACAGCAGAAGCGUUCACGUCGCAGCCCCCGUCAGAUACUGGUGAAUCUGCGAAUUCUGCUGUAUUUCAC, for which the self-cleavage was determined as 1.08.
To UAACAGGGGGCCACAGCAGAAGCGUUCACGUCGCAGCCCCCGUCAGAUUCUGGCGAAUCUGCGAAUUCUGCUGUAUCUCCC belongs 0.49; to UAACAGGGGGCCACAGCAGAAGCGUUCACGUCGCAGCCCCCGUCAGAUUCUGGUGAAUCUGCGAAUUCUCCUGUUAUUCUC, 0.22.
Turning to UAACAGGGGGCCACAGCAGAAGCGUUCACGUCGCAGCCCCGGUCAGUUUCUGGUGAAUCCGCGAAUUCUGCAGUAUAUCUC, the self-cleavage was 0.17.
Turning to UAACAGGGGGCCACAGCAGAAGCGUUCACGUCGCAGCCCCCGUCAGAUCCUGGUGGAUCUGCGUAUUCUGCUGUAUAUCUC, the self-cleavage came to 0.27.
With UAACAGGGGGCCACAGCAGAAGCGUUCACGUCGCAGCCCCCGUCAGAUUCUGGUGAAUCUGCGAAUUCUGCUGCUUAUCUC, the self-cleavage came out at 1.25.
Turning to UAACAGGGGGCCACAGCAGAAGCGUUCACGUCGCAGCCCCCGUCAGAUUAUGGUGAAUCUGCGAGUUCUGCUGUAUAUCUC, the self-cleavage came to 0.17.
As to UAACAGGGGGCCACAGCAGAAGCGUUCACGUCGCAGCCCCCGUCAGAUUCUGGUGAAACUGCGAAUUCUGAUGUAUAUCCC, the self-cleavage amounted to 0.15.
To UAACAGGGGGCCACAGCAGAAGCGUUCACGUCGCAGCCCCCGUCAGAUUCUGGUGAAUCAGCGAACUCUGCUGUAUAUCUC belongs 0.25; to UAACAGGGGGCCACAGCAGAAGCGUUCACGUCGCAGCCCCCGUCAGAUUCUGGUGAAUAUGCGAAUUCUGCUGUGUAUCUC, 0.28.
Consider UAACAGGGGGCCACAGCAGAAGCGUUCACGUCGCAGCCCCCGUCAGAUUCUGAUGGAUCUGCGAAUUCUGCUGUAUAUCUC, for which the self-cleavage amounted to 0.76.
Turning to UAACAGGGGGCCACAGCAGAAGCGUUCACGUCGCAGCCCCCGUCAGAUUCUGGUGAAUAUGCGAAUUCUGCUGUAUAUCAC, the self-cleavage is 0.32.
For the variant UAACAGGGGGCCACAGCAGAAGCGUUCACGUCGCAGCCCCCGUCAGACUCAGGUGAAUCUGCGAAUUCUGCUGUAUAUCUC, the self-cleavage stood at 0.82.
Consider UAACAGGGGGCCACAGCAGAAGCGUUCACGUCGCAGCCCCCGACAGAUUCUGGCGAAUCCGCGAAUUCUGCUGUAUAUCUC, for which the self-cleavage was found to be 0.19.
UAACAGGGGGCCACAGCAGAAGCGUUCACGUCGCAGCCCCGGUCAGAUUCAGGUGUAUCUGCGAAUUCUGCUGUAUAUCUC: the self-cleavage amounted to 0.36.
Consider UAACAGGGGGCCACAGCAGAAGCGUUCACGUCGCAGCCCCCGUCAGAUUCUGGUGAAUCAGCGUAUUCUGCUGUAUAUCUC, for which the self-cleavage was 0.26.
The figure for UAACAGGGGGCCACAGCAGAAGCGUUCACGUCGCAGCCCCCGUCAGAUUCUGGUGAAUCAGCGGAUUCUGCUGUAUAUCUC is 0.44.
The figure for UAACAGGGGGCCACAGCAGAAGCGUUCACGUCGCAGCCCCCGUCAGAUUCUGGAGAAUCUGCGAAUUCAGCUGUAUAUCUC is 0.67.
Take UAACAGGGGGCCACAGCAGAAGCGUUCACGUCGCAGCCCCCGUCAGAUUCUGGUGAACCUGCGGAUUCUGCUGUAUAUCUC: the self-cleavage came out at 0.3.
Regarding UAACAGGGGGCCACAGCAGAAGCGUUCACGUCGCAGCCCCCGUCAGAUUCUGGUGAACCUGCGUAUUCUGCUGUAUAUCUC, the self-cleavage came to 0.39.
With UAACAGGGGGCCACAGCAGAAGCGUUCACGUCGCAGCCCCCGUCAGAAUCUGGUGGAUCUGCGGAUUCUGCUGUAUAUCUC, the self-cleavage amounted to 0.39.
For the variant UAACAGGGGGCCACAGCAGAAGCGUUCACGUCGCAGCCCCGGUCAGGUUCUGGUGAAUCCGCGAAUUCUGCUGUAUAUCUC, the self-cleavage was 0.15.
Regarding UAACAGGGGGCCACAGCAGAAGCGUUCACGUCGCAGCCCCGGUCAGAUUCUGGUGAAUCUGCGAUUUCUGCUGUAUAUCUG, the self-cleavage is 0.22.
With UAACAGGGGGCCACAGCAGAAGCGUUCACGUCGCAGCCCCGGUCGGACUCUGGUGGAUCCGCGAAUUCUGCUGUAUAUCUC, the self-cleavage came out at 0.21.
To UAACAGGGGGCCACAGCAGAAGCGUUCACGUCGCAGCCCCCGUCAGAUUCUGGUGAAUCUGCGAAUUCUGCAGUAUAUAUC belongs 1.13; to UAACAGGGGGCCACAGCAGAAGCGUUCACGUCGCAGCCCCCGUCAGAUUCUGGUGAAUCUGCGAAUUCUGCUGUAUUUUUC, 1.34.
To UAACAGGGGGCCACAGCAGAAGCGUUCACGUCGCAGCCCCCGUCAGAUUCUGGUGAAUCUGCGAAUUCUGCAGUUUAUCUC belongs 1.07.
Consider UAACAGGGGGCCACAGCAGAAGCGUUCACGUCGCAGCCCCCGACAGAUUCUGGUGAAUCUGCGGAUUCCGCUGUAUAUCUC, for which the self-cleavage turned out to be 0.28.
UAACAGGGGGCCACAGCAGAAGCGUUCACGUCGCAGCCCCCGUCAGACUCUGGUGAAUCCGCGAAUUCAGCUGUAUAUCUC: the self-cleavage amounted to 0.45.
On to UAACAGGGGGCCACAGCAGAAGCGUUCACGUCGCAGCCCCGGUCAGAUUCUGGUGAAUCCGCGAAUUCUGCUGUAUAACUC, for which the self-cleavage turned out to be 0.1.
For the variant UAACAGGGGGCCACAGCAGAAGCGUUCACGUCGCAGCCCCCGUCAGAUUCUGGUGAAUCUGCGAUUCCUGCUGUAUAUCUC, the self-cleavage is 0.3.
For the variant UAACAGGGGGCCACAGCAGAAGCGUUCACGUCGCAGCCCCCCUCAGAUUCUGGUGAAUCUGCGAAUUCUGCUGUAUAUCCC, the self-cleavage is 0.4.
As for UAACAGGGGGCCACAGCAGAAGCGUUCACGUCGCAGCCCCCGUCAGAUUCCGGUGAAUCUGCGAAUCCUGCUGUAUAUCAC, the self-cleavage stood at 0.65.
In the case of UAACAGGGGGCCACAGCAGAAGCGUUCACGUCGCAGCCCCCGUCAGAUUCUGGUGAAUCUGCGAAUUCUGCUGUAUAUUCC, the self-cleavage was 1.14.
To UAACAGGGGGCCACAGCAGAAGCGUUCACGUCGCAGCCCCCGCCAGAUUCUGGAGAAUCUGCGAAUCCUGCUGUAUAUCUC belongs 0.12; to UAACAGGGGGCCACAGCAGAAGCGUUCACGUCGCAGCCCCCGUCAUAUUCUGGUGAACCUGCGAAUUCUGCUGUAUAUCUC, 0.18.
Consider UAACAGGGGGCCACAGCAGAAGCGUUCACGUCGCAGCCCCCGCCAGAUUCUGGUGUAUCUGCGAAUUCUGCUGUAUAUCUC, for which the self-cleavage was found to be 0.15.
Take UAACAGGGGGCCACAGCAGAAGCGUUCACGUCGCAGCCCCCGUCAGAUUCCGGUGAAUCUGCGAAUUCUGCUGUAAAUCUC: the self-cleavage was determined as 1.01.
In the case of UAACAGGGGGCCACAGCAGAAGCGUUCACGUCGCAGCCCCCGUCAGAUUCUGGUGAAUCUGCGAAUUCAGCUGUAUGUCUC, the self-cleavage amounted to 0.81.
As to UAACAGGGGGCCACAGCAGAAGCGUUCACGUCGCAGCCCCCGUCAGAUUCUGGCGAAUCUGCGAAUUCUGCUGUACAUCUC, the self-cleavage was found to be 1.07.
In the case of UAACAGGGGGCCACAGCAGAAGCGUUCACGUCGCAGCCCCCGCCAGAUUCAGGUGUAUCUGCGAAUUCUGCUGUAUAUCUC, the self-cleavage came to 0.2.
In the case of UAACAGGGGGCCACAGCAGAAGCGUUCACGUCGCAGCCCCCGUCAGAAUCUGAUGAAUCUGCGAAUUCUGCUGUAUAUCUC, the self-cleavage came out at 0.06.
Consider UAACAGGGGGCCACAGCAGAAGCGUUCACGUCGCAGCCCCCGUCAGAUUCUGGUGAAUCUGCGAAUUCUGCCGUAUAACCC, for which the self-cleavage came to 1.21.
As for UAACAGGGGGCCACAGCAGAAGCGUUCACGUCGCAGCCCCGGUCAGAUUCUGGUGAAUCUGCGAAUUCCGCUGCAUAUCUC, the self-cleavage was found to be 0.22.
Turning to UAACAGGGGGCCACAGCAGAAGCGUUCACGUCGCAGCCCCCUUCAGAUUCUGGCGAAUCUGCGAGUUCUGCUGUAUAUCUC, the self-cleavage was 0.15.
For the variant UAACAGGGGGCCACAGCAGAAGCGUUCACGUCGCAGCCCCCGUCAGAUUCCGGUGAAUAUGCGAAUUCUGCUGUAUAUCUC, the self-cleavage worked out at 0.33.
As to UAACAGGGGGCCACAGCAGAAGCGUUCACGUCGCAGCCCCCGCCAGAUCCUGGUGAAUCUGCGAAUUCUGCAGUAUAUCUC, the self-cleavage stood at 0.08.
As to UAACAGGGGGCCACAGCAGAAGCGUUCACGUCGCAGCCCCCGUCAGAUUCUGGCGAAUCUACGAAUUCUGCUGUAUAUCUC, the self-cleavage stood at 0.42.
With UAACAGGGGGCCACAGCAGAAGCGUUCACGUCGCAGCCCCCGUCAGAUUCUGGUGAACCUGCGAAUUCCGCUGUACAUCUC, the self-cleavage was 0.28.
For the variant UAACAGGGGGCCACAGCAGAAGCGUUCACGUCGCAGCCCCUAUCGGAUUCUGGUGAAUCUGCGGAAUCUGCUGUAUAUCUC, the self-cleavage turned out to be 0.13.
As for UAACAGGGGGCCACAGCAGAAGCGUUCACGUCGCAGCCCCCGUCAGAUCCUGGUGAGUCUGCGAAUUCUGCUGUAUGCCUC, the self-cleavage worked out at 0.3.
Regarding UAACAGGGGGCCACAGCAGAAGCGUUCACGUCGCAGCCCCCGUCAGAUUCCGGUGAAUCCGCGAAUUCUGCUGUAUAUCUC, the self-cleavage stood at 0.28.
For the variant UAACAGGGGGCCACAGCAGAAGCGUUCACGUCGCAGCCCCCGUCAGAUUCUGGUGAAUCUGCGAAUGCUGCUGUAUGUCUC, the self-cleavage was determined as 0.53.
UAACAGGGGGCCACAGCAGAAGCGUUCACGUCGCAGCCCCCGUCAGAUUCUGGUGAAUCUGCGAAUUCCGCUGCAUAUCCC: the self-cleavage turned out to be 0.49.
Take UAACAGGGGGCCACAGCAGAAGCGUUCACGUCGCAGCCCCCGUCAGACUCUGGUGAAUCUGCGAAUUCUGCCGUAUAUCUC: the self-cleavage was determined as 0.44.
For UAACAGGGGGCCACAGCAGAAGCGUUCACGUCGCAGCCCCCGUCAGAUUCUGGUGAAUCUGCGAAUUAAGCUGUAUAUCUC, the self-cleavage is 0.32.
For UAACAGGGGGCCACAGCAGAAGCGUUCACGUCGCAGCCCCCGUCAGAUUCUGGGGAAUCUGCGAUUUCUGCUGUAUAUCUC, the self-cleavage was found to be 0.11.
UAACAGGGGGCCACAGCAGAAGCGUUCACGUCGCAGCCCCCGUCAGAUUCUGGUGAAUCUGCGAAUUCUGCAGUAUAUCGC: the self-cleavage came to 1.18.
As to UAACAGGGGGCCACAGCAGAAGCGUUCACGUCGCAGCCCCCGACAGAUUCUGGUGAAUCUGCGAAUUCUGCUGUAUAUCAC, the self-cleavage was determined as 0.71.
As for UAACAGGGGGCCACAGCAGAAGCGUUCACGUCGCAGCCCCCGCCAGAUUCUGGUGAAUCUGCGAAUUCUGCUGUACCUCUC, the self-cleavage turned out to be 0.31.
Regarding UAACAGGGGGCCACAGCAGAAGCGUUCACGUCGCAGCCCCCGUCAGAUUCAGGUGAUUCUGCGAAUUCUGCUGUAUAUCUC, the self-cleavage is 0.63.
Consider UAACAGGGGGCCACAGCAGAAGCGUUCACGUCGCAGCCCCCGUCAGAUUCCGGUGAAUCUGCAAAUUCUGCUGUAUAUCUC, for which the self-cleavage was determined as 0.91.
For UAACAGGGGGCCACAGCAGAAGCGUUCACGUCGCAGCCCCGGUCUGAUUCUGGUGAACCCGCGAAUUCUGCUGUAUAUCUC, the self-cleavage worked out at 0.12.
To UAACAGGGGGCCACAGCAGAAGCGUUCACGUCGCAGCCCCCGUCAGAUUCAGGAGAAUCUGCGAAUUCUGCUGUAUAUCUC belongs 1.16.

These data come from the RNAGym collection of RNA variant scans (doi:10.1093/nar/gkz1192).
